Test results reported in the supplement of paper PMC10126150.
Sequences with one replicate were seen in a single cluster, so their values are uncertain.

Test system: ATP
Test: switch fluorescence ratio, 500 uM ATP over buffer (Cy3 cluster intensity, sum of 5 cycles each) (fold (ratio)); higher = stronger signal-on switching upon ATP binding; sequences stand for … in TCGTCGGCAGCGTCAGATGTGTATAAGAGACAGTTTTTTTTTTTTTTTTTTTTTTTTT…TC
Details: aptamer strand: ATP DNA aptamer (quencher-CACCTGGGGGAGTATTGCGGAGGAAGG + anchor), 100 nM annealed; ATP concentration: 500 uM; one replicate
Outline: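 The quencher-labelled ATP aptamer, at 100 nM, was annealed to Cy3-labelled switching-strand clusters on a modified Illumina MiSeq flow-cell. The clusters were imaged in selection buffer, then after 15 min with 500 uM ATP at 22 °C, and this buffer/ATP cycle ran five times with NaOH stripping and re-annealing between runs. Per-cluster fluorescence ratios, summed target-cycle over summed buffer-cycle Cy3 intensity, were averaged per switch-domain sequence. Clusters outside 100-1000 RFU were excluded.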
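Note: ATP exposure 15 min at 22 °C before imaging.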

## CTATGCA
  switch fluorescence ratio: 1.15

## ACGTAGAGTC
  switch fluorescence ratio: 1.11

## CTGATGGCAG
  switch fluorescence ratio: 1.11

## TGAATTCGAG
  switch fluorescence ratio: 1.05

## CCATGCGAAG
  switch fluorescence ratio: 1.01

## CAGGCTTCT
  switch fluorescence ratio: 1

## CGGTGCTTGG
  switch fluorescence ratio: 0.972

## GTTTGTTAAA
  switch fluorescence ratio: 0.985

## ACGCGATAGT
  switch fluorescence ratio: 1.23

## CTAGGACGCC
  switch fluorescence ratio: 1.02

## CCTATAAATT
  switch fluorescence ratio: 0.998

## AAATGGTCAG
  switch fluorescence ratio: 0.97

## TACTATAAGC
  switch fluorescence ratio: 1.07

## CCTGGGGC
  switch fluorescence ratio: 1.04

## TCGGTACGTC
  switch fluorescence ratio: 0.949

## CAGTTAAT
  switch fluorescence ratio: 0.988

## AACTATTCGC
  switch fluorescence ratio: 1.03

## ATTTGGCG
  switch fluorescence ratio: 1.03

## ATATGAAATT
  switch fluorescence ratio: 0.967

## ATTACAAGG
  switch fluorescence ratio: 1.02

## TTTTAGATAA
  switch fluorescence ratio: 1.06

## CCAAATATGG
  switch fluorescence ratio: 1.04

## ACCATAGACT
  switch fluorescence ratio: 1.07

## ACTATGTGCA
  switch fluorescence ratio: 0.962

## GCTCAAATG
  switch fluorescence ratio: 1.01

## AAAAAAGGAA
  switch fluorescence ratio: 1

## TTTATTCGCC
  switch fluorescence ratio: 0.977

## GGTTTTTTCG
  switch fluorescence ratio: 1.04

## TTCCTAAAAC
  switch fluorescence ratio: 1

## TTGAATGCGT
  switch fluorescence ratio: 0.948

## CCTCGCTAGG
  switch fluorescence ratio: 3.51

## GGGATTGCCA
  switch fluorescence ratio: 0.998

## GACGTCATAA
  switch fluorescence ratio: 1

## TGGCCAATGC
  switch fluorescence ratio: 1.16

## ACGAGTCCGG
  switch fluorescence ratio: 1.65

## ATTAGATAAG
  switch fluorescence ratio: 1.03

## CTATGTTCCA
  switch fluorescence ratio: 1.02

## CCAAGATGAA
  switch fluorescence ratio: 0.979

## TAAGCGTCAC
  switch fluorescence ratio: 1.08

## AGCAACTACG
  switch fluorescence ratio: 1.82

## CATACGGTG
  switch fluorescence ratio: 1.07

## GATAATACCT
  switch fluorescence ratio: 1.37

## GATACTGAAA
  switch fluorescence ratio: 1.07

## TTATTGGATC
  switch fluorescence ratio: 0.823

## TAAAGAGAGG
  switch fluorescence ratio: 1.02

## TAGGAGACTT
  switch fluorescence ratio: 1

## ACTTTAAGAC
  switch fluorescence ratio: 1.07

## TAGATACGCT
  switch fluorescence ratio: 1.01

## CATGCAAACT
  switch fluorescence ratio: 1.16

## TTGTAGATTT
  switch fluorescence ratio: 0.954

## GATCGGAGTA
  switch fluorescence ratio: 0.937

## GGAAGGAAGT
  switch fluorescence ratio: 0.937

## ACGGAAGTGA
  switch fluorescence ratio: 1.03

## ATCAGCGGTC
  switch fluorescence ratio: 1.12

## TTGGTCGAC
  switch fluorescence ratio: 0.993

## TTTGAGGCTT
  switch fluorescence ratio: 1.01

## CGGTGTATGA
  switch fluorescence ratio: 0.975

## AACGCCCCTA
  switch fluorescence ratio: 1.04

## GTAATCTCTA
  switch fluorescence ratio: 0.987

## ACCGGAGCCG
  switch fluorescence ratio: 1.23

## AGCTTGTGCA
  switch fluorescence ratio: 0.992

## TGGATCCTAG
  switch fluorescence ratio: 0.973

## TTGTCAGGAG
  switch fluorescence ratio: 0.975

## AGTTTCGAA
  switch fluorescence ratio: 1.06

## GTTACACGCG
  switch fluorescence ratio: 0.965

## GATGTTAGT
  switch fluorescence ratio: 0.996

## GGACGAGTAT
  switch fluorescence ratio: 1.04

## TCCTCGTCGG
  switch fluorescence ratio: 1.19

## TGGGGGCCG
  switch fluorescence ratio: 0.973

## CTTAGTGCAG
  switch fluorescence ratio: 0.987

## CAAGTCAGTC
  switch fluorescence ratio: 0.98

## AGAATCAACA
  switch fluorescence ratio: 1.01

## CATACAATTT
  switch fluorescence ratio: 0.989

## ACAGGGATGC
  switch fluorescence ratio: 0.98

## CCTAAAACTA
  switch fluorescence ratio: 1.06

## ATGTTAAAGT
  switch fluorescence ratio: 0.951

## CCCGTGGGGC
  switch fluorescence ratio: 1.04

## CCTCTGTGCG
  switch fluorescence ratio: 1.01

## TTCATCGGTA
  switch fluorescence ratio: 0.993

## CGATTACTAT
  switch fluorescence ratio: 0.998

## CCCAGATTGC
  switch fluorescence ratio: 1.02

## TAACGGGGAA
  switch fluorescence ratio: 1.07

## GCGTTTTCTA
  switch fluorescence ratio: 0.981

## AGAGGAGTTT
  switch fluorescence ratio: 0.994

## GCCGTCATGA
  switch fluorescence ratio: 1.01

## AAGTTAATAT
  switch fluorescence ratio: 1.05

## GTAGGAAGGG
  switch fluorescence ratio: 1.02

## TTGTCGAGAG
  switch fluorescence ratio: 1.02

## TTGCAATTGC
  switch fluorescence ratio: 1.07

## AGAGATGGGT
  switch fluorescence ratio: 1.02

## GCGCAGCGAT
  switch fluorescence ratio: 1.14

## CAAGGGCAAT
  switch fluorescence ratio: 1.94

## CATATCCT
  switch fluorescence ratio: 1.05

## CTATTGCTTG
  switch fluorescence ratio: 1.01

## CCAATATTAG
  switch fluorescence ratio: 1.09

## TAGCTGTTGG
  switch fluorescence ratio: 0.988

## TTTATTGGTC
  switch fluorescence ratio: 0.952

## ACGTGCGCGC
  switch fluorescence ratio: 0.998

## ATGCAAAACA
  switch fluorescence ratio: 1.03

## ACGGTAGCG
  switch fluorescence ratio: 1.11

## GTATGGAACA
  switch fluorescence ratio: 1.03

## AGGAGATTGA
  switch fluorescence ratio: 0.955

## ACCGAATTGA
  switch fluorescence ratio: 1.03

## TGAGTGGTGG
  switch fluorescence ratio: 1.01

## TGCCCGTACA
  switch fluorescence ratio: 1.02

## CGAGAATGAT
  switch fluorescence ratio: 0.972

## AAATCGCGAA
  switch fluorescence ratio: 1

## CCACATCGGA
  switch fluorescence ratio: 1.01

## AACTTTATTC
  switch fluorescence ratio: 1.05

## GTCAGTGCGC
  switch fluorescence ratio: 0.978

## CTCGAATAGT
  switch fluorescence ratio: 0.984

## GAAGAAATGA
  switch fluorescence ratio: 1

## CGTCTCGGCT
  switch fluorescence ratio: 1

## AACGCGGTAA
  switch fluorescence ratio: 1.06

## AGTATGCGTC
  switch fluorescence ratio: 1.06

## AATCAGCTGG
  switch fluorescence ratio: 1.05

## TTGTGATTCG
  switch fluorescence ratio: 1.01

## AACTACGGAG
  switch fluorescence ratio: 1.05

## CGCATCGGTA
  switch fluorescence ratio: 1.03

## AATGCTGAGC
  switch fluorescence ratio: 1

## GGTTGAGCT
  switch fluorescence ratio: 0.966

## CCATTCATTC
  switch fluorescence ratio: 1.03

## TCCAGAGGTT
  switch fluorescence ratio: 0.999

## AGTGTTAATT
  switch fluorescence ratio: 1.03

## GCCGGGTGTG
  switch fluorescence ratio: 1.01

## TTTTTCATAG
  switch fluorescence ratio: 1.02

## GGATTTAGCC
  switch fluorescence ratio: 1.05

## ATTGATCCC
  switch fluorescence ratio: 0.988

## GTACATAGGT
  switch fluorescence ratio: 1.03

## GAAACAGACT
  switch fluorescence ratio: 1.16

## ATGGAGTTAG
  switch fluorescence ratio: 0.949

## GTGTCCTGTT
  switch fluorescence ratio: 0.976

## CTGTTCTGGT
  switch fluorescence ratio: 0.98

## ATGAGTTGCA
  switch fluorescence ratio: 0.977

## CCGTTATTAT
  switch fluorescence ratio: 1.16

## GTCATAACGT
  switch fluorescence ratio: 1.01

## ATTTTAACAT
  switch fluorescence ratio: 1.02

## CATTCGGTTT
  switch fluorescence ratio: 0.976

## GAGATAGCGA
  switch fluorescence ratio: 0.973

## CCTCAAACAG
  switch fluorescence ratio: 1.41

## TGGGTGTTCG
  switch fluorescence ratio: 1.04

## AGCGAGCGCA
  switch fluorescence ratio: 1.04

## TCATATTCTG
  switch fluorescence ratio: 0.97

## AAAGAGAATG
  switch fluorescence ratio: 1.04

## AGATATGATA
  switch fluorescence ratio: 0.996

## AGCTGGGGGC
  switch fluorescence ratio: 0.987

## GCTCGGGAAT
  switch fluorescence ratio: 2.01

## CAGATTGGAA
  switch fluorescence ratio: 0.988

## TCTGTTCTTT
  switch fluorescence ratio: 1.05

## CAACTTTGTG
  switch fluorescence ratio: 1.02

## ATGGAGCCGG
  switch fluorescence ratio: 1.09

## AGAATTCGTG
  switch fluorescence ratio: 1.03

## TCTGGTTGTT
  switch fluorescence ratio: 1.01

## CCACCGGGCA
  switch fluorescence ratio: 1.43

## TCAATGGGAC
  switch fluorescence ratio: 0.989

## AAGGCGGCTA
  switch fluorescence ratio: 1.03

## AGCAGAAGTA
  switch fluorescence ratio: 1.21

## GTAGCAAAGT
  switch fluorescence ratio: 1.58

## CACATGTGCT
  switch fluorescence ratio: 0.985

## ACGGTGGTTG
  switch fluorescence ratio: 1.01

## CACCGTTCCT
  switch fluorescence ratio: 2.73

## CTGAATAAGG
  switch fluorescence ratio: 1.02

## AACCCGGAAC
  switch fluorescence ratio: 1.2

## ACGCCACCCT
  switch fluorescence ratio: 1.62

## GGGGCACTAC
  switch fluorescence ratio: 2.45

## GATGTTATGT
  switch fluorescence ratio: 0.993

## TTTAAGTATG
  switch fluorescence ratio: 1.03

## ATCGGCCTGC
  switch fluorescence ratio: 0.865

## CACGGTGTGA
  switch fluorescence ratio: 1

## GGTGTCGGGG
  switch fluorescence ratio: 1.04

## ACACCCCCAA
  switch fluorescence ratio: 3.52

## TAGATTTTCC
  switch fluorescence ratio: 1.04

## ATCCGCGGAA
  switch fluorescence ratio: 2.32

## GGGTTTGCTT
  switch fluorescence ratio: 0.996

## ATAAAACACT
  switch fluorescence ratio: 1.03

## TTTCGAGGT
  switch fluorescence ratio: 0.973

## GCAAGGGCCT
  switch fluorescence ratio: 1.03

## GTTCTGTGTA
  switch fluorescence ratio: 0.975

## ATGAGTTTGA
  switch fluorescence ratio: 0.992

## CGTGAAGCGG
  switch fluorescence ratio: 0.965

## AGACATCAAC
  switch fluorescence ratio: 1.07

## TTATCTAAGG
  switch fluorescence ratio: 1.02

## GACGAATCGT
  switch fluorescence ratio: 0.967

## GAAATGGTGT
  switch fluorescence ratio: 1

## CGGACTGGCT
  switch fluorescence ratio: 1.01

## GTTAAAGTGT
  switch fluorescence ratio: 0.989

## CGGGCTGAAC
  switch fluorescence ratio: 1.01

## TGATTCAGCC
  switch fluorescence ratio: 1.02

## GCGCGCTTTA
  switch fluorescence ratio: 1.22

## TGAAACCTGT
  switch fluorescence ratio: 1.03

## AGACTACAGC
  switch fluorescence ratio: 0.985

## CTTGCGTCCT
  switch fluorescence ratio: 1.03

## TGAGATGTTG
  switch fluorescence ratio: 0.949

## TATCTCGAAA
  switch fluorescence ratio: 1

## CACGCTGGGA
  switch fluorescence ratio: 1.07

## CGTCGAGGGG
  switch fluorescence ratio: 1.01

## TGAATTCGCA
  switch fluorescence ratio: 1.16

## CAGGCTCGG
  switch fluorescence ratio: 0.973

## ATACCCAAAT
  switch fluorescence ratio: 1.01

## AAGGAACTT
  switch fluorescence ratio: 0.997

## ATTAGGGGA
  switch fluorescence ratio: 1.02
